Reference: PubChem BioAssay AID624172 (National Center for Advancing Translational Sciences (NCATS), 2012)
Out of some 380,000 compounds screened, about 25 (0.007%) were called active. The inconclusive results got no clear call from the source; some entries with a clear call stand among them for comparison. Calls come from the whole dose curve; as a rule, active = well fitted activation curve with a large enough effect; inconclusive = small, poorly fitted or top-dose-only effect; inactive = no such curve, though single readings can be large or run the other way. No potency is given beside an inconclusive call; the fits are too rough.

molecular target: Glucagon-like peptide 1 receptor (Homo sapiens) (UniProt P43220); experiment: qHTS of GLP-1 Receptor Agonists; settings: HEK293 GLP-1R CRE-luciferase, luminescence, 4-6 h, cells express a hypersensitive GLP-1R form; activation: at 45.6 µM (top of the series) unless noted; for activation: % of control where 0% means no effect
Potency is the fitted concentration of half-maximal effect; tags give direction and shape of the fitted curve.

Sequence of UniProt P43220 (P43220 whole entry, looked up): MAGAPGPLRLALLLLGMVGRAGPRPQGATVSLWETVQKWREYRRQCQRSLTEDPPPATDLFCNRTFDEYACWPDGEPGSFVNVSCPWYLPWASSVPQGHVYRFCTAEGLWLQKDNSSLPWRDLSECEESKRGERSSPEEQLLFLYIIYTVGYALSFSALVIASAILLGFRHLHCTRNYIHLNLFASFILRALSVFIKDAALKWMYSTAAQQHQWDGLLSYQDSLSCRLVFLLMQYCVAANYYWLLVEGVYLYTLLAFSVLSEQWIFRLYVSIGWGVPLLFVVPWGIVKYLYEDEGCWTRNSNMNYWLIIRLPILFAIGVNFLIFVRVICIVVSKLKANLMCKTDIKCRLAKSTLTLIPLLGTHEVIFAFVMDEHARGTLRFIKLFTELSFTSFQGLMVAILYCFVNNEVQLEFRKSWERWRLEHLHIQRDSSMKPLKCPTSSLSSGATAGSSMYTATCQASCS

| Structure (SMILES) | activation | Potency |
| --- | --- | --- |
| CN(C)S(=O)(=O)c1cccc(NC(=O)CN2C(=O)C3C4C=CC(C4)C3C2=O)c1 (stereo unspecified) | inactive: -0.0345% | – |
| CCc1cccc(NC(=O)COC(=O)c2cn(CC)c3nc(C)ccc3c2=O)c1 | inactive: 0.513% | – |
| CC(C)NC(=O)c1ccc(-c2ccccc2C(F)(F)F)o1 | – | inconclusive [activator, single point] |
| CCCCOc1ccc(-c2cn3ccccc3n2)cc1[N+](=O)[O-] | – | inconclusive [activator, partial curve, poor fit] |
| Cc1cc(C)c(NC(=O)CN(C2CCCCC2)C2CCCCC2)c(C)c1 | – | inconclusive [activator, partial curve, poor fit] |
| Cc1cc(C)c2c(n1)sc1c(N3CCCCC3)ncnc12 | – | inconclusive [activator, partial curve, poor fit] |
| O=C(CCN1C(=O)/C(=C\c2ccccc2)SC1=S)N1CCCCC1 | inconclusive: 38.4% [activator] | – |
| COc1ccc(-c2nn3c(-c4ccc(F)cc4)nnc3s2)cc1 | – | inconclusive [activator, partial curve, poor fit] |
| COc1cc2[nH]cc(C(=O)NCCc3ccccc3)c(=O)c2cc1OC | – | inconclusive [activator, partial curve] |
| O=C(N(c1ccccc1)c1ccccc1)N(c1ccccc1)c1ccccc1 | inactive: 4.59% | – |
| Cn1c2ccccc2c2cc(/C=N/NC(=O)c3ccc(O)cc3O)ccc21 | inactive: -1.07% | – |
| O=[N+]([O-])c1cc(/C=N/O)ccc1Oc1ccccc1Cl | – | inconclusive [activator, partial curve, poor fit] |
| COc1ccc(-c2coc3c(C(=O)NCc4ccco4)cccc23)c(C)c1 | inactive: -2.08% | – |
| CCn1cnc2c1c(=O)n(Cc1ccc(C(=O)OC)cc1)c(=O)n2Cc1ccccc1 | – | inconclusive [activator, single point] |
| C=CCOc1c(Br)cc(/C=N/n2c(CC)n[nH]c2=S)cc1Br | inactive: 1.27% | – |
| O=c1sc(Nc2ccccc2)nc2ccsc12 | – | inconclusive [activator, partial curve, poor fit] |
| O=C(CCNc1ccc(F)cc1)c1cc2ccccc2o1 | inconclusive: 46.3% [activator] | – |
| COc1ccc(OC)c(-c2nnc3n2N=C(c2ccc(OC)c(OC4CCOC4)c2)CS3)c1 (stereo unspecified) | – | inconclusive [activator, partial curve] |
| O=C(COC(=O)/C=C/C(=O)N1CCN(c2ccccc2)CC1)NC(c1ccccc1)c1ccccc1 | inactive: -3.46% | – |
| O=C(Nc1nnc(-c2ccccc2Cl)o1)c1ccc(S(=O)(=O)N2CCCCCC2)cc1 | inactive: -7.63% | – |
| COC1=CC(=O)c2ccccc2C1=O | inactive: -9.37% | – |
| Cc1cc(C)nc(N2CCCC(C(=O)Nc3ccc4nc(C)c(C)nc4c3)C2)n1 (stereo unspecified) | – | inconclusive [activator, full curve] |
| COc1ccccc1/C=C1\S/C(=N/NC(=O)c2cccc(Br)c2)NC1=O | inactive: -30.2% | – |
| CCc1ccccc1Nc1nn2c(=O)c3ccc(C(=O)NCCC4=CCCCC4)cc3nc2s1 | inactive: -11% | – |

| Structure (SMILES) | activation | Potency |
| --- | --- | --- |
| CCn1c(SCc2nc3ccccc3c(=O)[nH]2)nc2ccccc2c1=O | – | inconclusive [activator, partial curve] |
| S=C(NCCc1ccccc1)Nc1ccc(Nc2ccccc2)cc1 | inactive: 4.98% | – |
| CC(=O)Oc1ccc(C(=O)Nc2ccc(S(=O)(=O)NCC3CCCO3)cc2)cc1 (stereo unspecified) | inactive: 0.116% | – |
| O=C1NC(c2ccccc2)=C(c2nc3ccccc3s2)C(c2ccc(F)cc2)N1 (stereo unspecified) | inactive: -3.98% | – |
| CCCCOc1ccc2c(C)cc(=O)oc2c1OCCCC | – | inconclusive [activator, partial curve, poor fit] |
| COc1c(S(=O)(=O)N2CCCC2)ccc(Cl)c1Cl | – | inconclusive [activator, partial curve, poor fit] |
| Cc1ccc(SCCc2ccc(C)nc2)cc1 | – | inconclusive [activator, single point] |
| CCn1c(=O)[nH]c(=O)c2c(N)c(C(=O)c3cc(F)ccc3F)sc21 | – | inconclusive [activator, partial curve, poor fit] |
| COc1ccc(C(O)c2nc(-c3ccccc3OC)cs2)cc1 (stereo unspecified) | – | inconclusive [activator, partial curve, poor fit] |
| COc1ccc(S(=O)(=O)N(C)CC(=O)NC2CCCCC2)cc1Cl | – | inconclusive [activator, single point] |
| CCOC(=O)c1c(C)nc2ccccn12 | – | inconclusive [activator, single point] |
| COc1ccc(CNc2nc(NCc3ccc(OC)cc3)c3ncn(C4CCCC4)c3n2)cc1 | – | inconclusive [activator, partial curve, poor fit] |
| CCOC(=O)c1c(N)n(-c2ccc(N)cc2)c2nc3ccccc3nc12 | inactive: 5.01% | – |
| Cc1ccccc1Oc1cc(-n2ncc(Cl)c(Cl)c2=O)ncn1 | inactive: -21.5% | – |
| CCc1cc(C(=O)c2ccc(C)cc2)c(NC(=O)CCl)s1 | – | inconclusive [activator, partial curve, poor fit] |
| CCC1CCc2c(sc(NC(C)=O)c2C#N)C1 (stereo unspecified) | – | inconclusive [activator, partial curve, poor fit] |
| C/C(NC(=O)c1cccs1)=C1\C(=O)C[C@@H]2[C@H]1C2(C)C | – | inconclusive [activator, partial curve, poor fit] |
| O=C(Nc1ccccn1)c1cc(-c2ccc(Cl)s2)nc2ccccc12 | inactive: -2.49% | – |
| CCCCCCSc1cccc(-c2nc3ccc(Cl)cn3c2NCCCC)c1 | – | inconclusive [activator, partial curve] |
| CCc1ccc(CNC(=O)C2CCC(=O)N2C2CCCCC2)cc1 (stereo unspecified) | – | inconclusive [activator, full curve, poor fit] |
| Cn1c(N)c(C(=O)CCl)c(=O)n(Cc2ccccc2)c1=O | inactive: -0.466% | – |
| Cc1noc(C)c1CSc1nc2[nH]ncc2c(=O)n1-c1ccccc1 | – | inconclusive [activator, partial curve, poor fit] |
| CCOc1cccc(-c2nnc3n2N=C(c2cc(OC)ccc2OC)CS3)c1 | – | inconclusive [activator, partial curve, poor fit] |
| COc1ccc(CCN(C)C/C=C/c2ccccc2[N+](=O)[O-])cc1OC | – | inconclusive [activator, partial curve, poor fit] |

| Structure (SMILES) | activation | Potency |
| --- | --- | --- |
| COc1cc2c(cc1OC)/C(=C/C(=O)c1ccccc1F)NCC2 | – | inconclusive [activator, partial curve] |
| CCOC(=O)c1c(N)c(C#N)c2n1CCCC2 | inconclusive: 59.2% [activator] | – |
| COc1ccc(Cc2nnc(-c3ccccc3)o2)cc1 | inactive: 27.3% | – |
| O=c1[nH]nc(-c2ccc(NCCO)c([N+](=O)[O-])c2)c2ccccc12 | – | inconclusive [activator, partial curve] |
| COc1ccc2nc(NC(=O)c3ccc(S(=O)(=O)N4CCC(C)CC4)cc3)sc2c1 | inactive: 7.74% | – |
| CC(=C/c1ccccc1)/C=N/NC(=O)c1nnn(-c2nonc2N)c1CN1CCC(C)CC1 | inactive: 14.5% | – |
| CC(=O)Nc1ccc(NS(=O)(=O)c2cc(-c3n[nH]c(=O)c4ccccc34)ccc2C)cc1 | – | inconclusive [activator, single point] |
| COc1ccccc1-n1c(-c2ccc(NS(C)(=O)=O)cc2)n[nH]c1=S | inactive: -1.23% | – |
| CCOc1ccc(N2CC(C(=O)Nc3ccncc3)CC2=O)cc1 (stereo unspecified) | inconclusive: 50.4% [activator] | – |
| CC1CC(=O)NN=C1c1ccc(N(C)C)c([N+](=O)[O-])c1 (stereo unspecified) | – | inconclusive [activator, partial curve] |
| CCC(NC(C)C)C(O)c1ccc(O)c2[nH]c(=O)ccc12 (stereo unspecified) | inconclusive: 44.2% [activator] | – |
| COc1cccc(Cc2nc3ccccc3nc2SCC(=O)NCCc2ccccc2)c1 | inactive: -6.69% | – |
| Cc1ccc(S(=O)(=O)Oc2ccc(C3C4=C(CCCC4=O)N(CCC(=O)O)C4=C3C(=O)CCC4)cc2Cl)cc1 | inactive: 1.01% | – |
| CC1=CC(C)[C@@H]2COC(c3ccc(O)cc3)[C@H]1C2C (stereo partly specified) | – | inconclusive [activator, partial curve, poor fit] |
| O=C(N/N=C/c1cc(Cl)cc([N+](=O)[O-])c1O)NC12CC3CC(CC(C3)C1)C2 | inactive: -5.66% | – |
| Cc1nc(N)nc(Nc2ccc(Cl)cc2)c1Br | – | inconclusive [activator, partial curve, poor fit] |
| Cc1cc(N/N=C/c2ccc(O)cc2O)nc(-c2ccccc2O)n1 | inactive: -19.3% | – |
| CC(O)CNc1nc2sc3c(c2c(=O)n1Cc1ccco1)CCCCC3 (stereo unspecified) | – | inconclusive [activator, partial curve, poor fit] |
| Fc1ccccc1/C=N/NC(=S)Nc1ccc(Cl)cc1Cl | inactive: -5% | – |
| COc1ccc(-c2noc(-c3cccnc3)n2)cc1OC | – | inconclusive [activator, partial curve, poor fit] |
| O=C(O)c1nn(CCSc2ccccc2F)c(=O)c2ccccc12 | – | inconclusive [activator, single point] |
| CCCN(CCC)C(=O)c1cc2c(=O)n3cccc(C)c3nc2s1 | – | inconclusive [activator, single point] |
| CC[C@@]12C(=O)N(c3cccc(F)c3)C(=O)N1[C@H](c1ccc(F)cc1)[C@@H]1C(=O)N(C3CCCCC3)C(=O)[C@@H]12 | inactive: -3.09% | – |
